{"source": "patent US20040053370A1", "about": "(Eli Lilly, published 2004)", "molecular_target": "GLP-1 receptor", "assay": "cell-based or functional assay", "data": [{"binder": "Gly^8-Glu^22-GLP-1-CEx-Linker-IgG1 (Fc fusion) HGEGTFTSDVSSYLEEQAAKEFIAWLVKGRGSSGAPPPSGGGGSGGGGSGGGGSA[omitted - human IgG1 Fc]", "values": [{"measurement": "In Vitro Activity (% of Val^8-GLP-1)", "result": "150 % of Val^8-GLP-1"}]}, {"binder": "Gly^8-Glu^22-GLP-1-CEx-Linker-IgG4 (Fc fusion) HGEGTFTSDVSSYLEEQAAKEFIAWLVKGRGSSGAPPPSGGGGSGGGGSGGGGSA[omitted - human IgG4 Fc]", "values": [{"measurement": "In Vitro Activity (% of Val^8-GLP-1)", "result": "80 % of Val^8-GLP-1"}]}, {"binder": "Val^8-Glu^22-GLP-1-CEx-IgG1 (Fc fusion) HVEGTFTSDVSSYLEEQAAKEFIAWLVKGRGSSGAPPPSA[omitted - human IgG1 Fc]", "values": [{"measurement": "In Vitro Activity (% of Val^8-GLP-1)", "result": "29 % of Val^8-GLP-1"}]}, {"binder": "Val^8-GLP-1-CEx-IgG1 (Fc fusion) HVEGTFTSDVSSYLEGQAAKEFIAWLVKGRGSSGAPPPSA[omitted - human IgG1 Fc]", "values": [{"measurement": "In Vitro Activity (% of Val^8-GLP-1)", "result": "3.3 % of Val^8-GLP-1"}]}]}
